# ± gives the standard deviation of the averaged measurements. The list shows a part of the results.
# Tested on: PfAP2-I AP2 domain 3 (GST-tagged)
# Experiment: gcPBM binding intensity (ln(normalized median fluorescence intensity)); higher = stronger DNA binding
# Outline: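 Binding intensity values are the highest Masliner-normalised natural-log median intensity among replicate spots of either probe orientation. The binding step lasted 1 h in 1× PBS with 1% milk, 0.2 mg/ml BSA, 0.5% salmon testes DNA and 0.03% Triton X-100, using GST-tagged P. falciparum DNA-binding domains expressed in E. coli on an Agilent 4 × 180k array of primer-extended double-stranded 36-bp intergenic genomic probes plus negative controls. Alexa488 anti-GST antibody and a 488 nm scan detected bound protein.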
row,Sequence,gcPBM binding intensity (ln)
1,TATAAATTTTGTTTAGCACACACACCGACATACATA [CACACA_site9033],8.46 ± 0.3
2,TATAATAGCTTCTTTACACACACCATTTTTTTTTTT [CACACA_site1456],7.71 ± 0.58
3,CTTACATATTACATATGTACATATACACCTTATGTC [XGTACX_site4679],7.99 ± 0.67
4,ATATATTTTTAATTTGCATGTAGTAAAGCCTTAAAT [TGCATGCA_site593],7.78 ± 0.77
5,CATCAAGTGAATTGTTGTACTTTACATTGTTTTTAT [XGTACX_site7261],7.89 ± 0.69
6,TGTTTTCTTGATTATTGTACTTTAATTAGTAATATG [XGTACX_site8674],7.74 ± 0.38
7,TAAATACATTTATGTACACACACATAGATGTATATT [CACACA_site5618],7.58 ± 0.33
8,TGAATATTCATGTGTGTGCGCATGTTGTTAGACCAT [GTGCAC_site9869],8.52 ± 0.49
9,AAAAATATTATAAGCACACATATATATATATATATA [CACACA_site2458],9.65 ± 0.49
10,TATAATATGTTATATACACACATTATAAAATACACA [CACACA_site6742],7.76 ± 0.44
11,AAAAAAAAAATTAATTGTACTAAAAAAATATTATAT [XGTACX_site8903],7.58 ± 0.52
12,TAATAATAAATAAAATGTACATATGAACAAATAAGT [XGTACX_site6710],8.27 ± 0.54
13,ACTGTCATTTATTGTAGTACGTCAATTTATTACATT [XGTACX_site2749],7.95 ± 0.54
14,TGTTACAAAAAATAATGTACTTAATATATATATATA [XGTACX_site1016],9.11 ± 0.29
15,TATCTTCATTTTTTTGGTACGCACGCAAATATGGCT [XGTACX_site3107],8.29 ± 0.49
16,TATATATTATAAAAGAGTACAGAAAGAAAAAAAAAT [XGTACX_site8305],8.38 ± 0.64
17,AAACTTTTTTTAAAAACACACATATATATTTATATA [CACACA_site4092],7.86 ± 0.49
18,ATATTCAATATATTATGTACACATATATGAGGATAT [XGTACX_site7019],8.1 ± 0.39
19,GTTTAAAATCTTTGCACACATATAAATAAATATATT [CACACA_site2555],9.18 ± 0.057
20,AGTATATTAATATAATGTACAAACGTTTATTTTGTA [XGTACX_site5980],7.61 ± 0.6
21,AAATATCTACATATTTGTACATATTTATACATATTT [XGTACX_site6300],7.42 ± 0.44
22,GAAAAGTAGACAATATGTACATATAGTATTTATAAA [XGTACX_site878],7.8 ± 0.22
23,AGCAACCCCCTAGCTACACACATATAGATATAAATA [CACACA_site6577],9.02 ± 0.34

row,Sequence,gcPBM binding intensity (ln)
1,ATCATGTTATATATATGTACTAATAATATAATATAA [XGTACX_site1326],7.68 ± 0.34
2,AGTTTATATTATTAAAGTACATATATATATTCTTAA [XGTACX_site3164],7.79 ± 0.4
3,AGTCGAATGATGTACACACATACAAAACATTTATGC [CACACA_site4022],7.93 ± 0.47
4,ATATATATATATATATGGTAAAGTAAAAGGAAATAC [XGTACX_negctrl_site45],9.52 ± 0.59
5,TACTAACTTTTTAAAAGTACAGAACCATAACCATAA [XGTACX_site7182],8.06 ± 0.48
6,GAATAATCTAGAAACACACAAACACGACAAAAGAAA [CACACA_site4135],8.06 ± 0.59
7,AATATCAATATTATATGTACTTATAATTTCAATGTA [XGTACX_site2423],7.66 ± 0.4
8,TAAATTTATTAATCAAGTACAAAATAAATTTTTATA [XGTACX_site2745],7.3 ± 0.29
9,TATATATAGAAACACACACACACATATATATATATA [CACACA_site4116],9.37 ± 0.39
10,AAAATTTAATATAATGCACACATAAAAAAAAAATCA [CACACA_site7882],11.2 ± 0.76
11,TAAAAAAGTTATATTACACACTTTATTGGTTAACTT [CACACA_site653],7.59 ± 0.46
12,ACATATAAATTATATACACACAATAATATATATATA [CACACA_site1384],8.92 ± 0.44
13,TATTTATAAAAAAAATGTACATTTATGTATAAGCTA [XGTACX_site3266],7.77 ± 0.37
14,ATAATGTTTCTTTCAACACACAAAAAATGAACCCAT [CACACA_site4947],8.3 ± 0.45
15,GTATAATTGGAAATTACACACCTTATAATGTAACAT [CACACA_site6091],7.71 ± 0.52
16,AATGATTTTAAAAAATGTACTTTATAAACAAAATTA [XGTACX_site3803],7.57 ± 0.39
17,TTTTTTTTTGTTAGTTGTACGTTAAATGAATTTACT [XGTACX_site7675],7.79 ± 0.71
18,TAAATTAGAATAAATACACACAAATTAGAATTCTAT [CACACA_site7781],7.49 ± 0.7
19,TAAAGTGTCAAATTCACACACATATATATATATATA [CACACA_site1380],9.26 ± 0.11
20,ATATTATATAACTTTTGTACGAACTATTTTATATAT [XGTACX_site6],8 ± 0.33
21,ACCTATGTATATTATACACACTCCAAACTATTCTTT [CACACA_site6939],8.18 ± 0.57
22,TTTAGAGAAGTCAAGTGTACATATAAAATAATTCAC [XGTACX_site4997],7.83 ± 0.56
23,ATAAAAATAAATAAATTATATAAATGTAATATGAAA [GTGCAC_negctrl_site663],7.68 ± 0.24

row,Sequence,gcPBM binding intensity (ln)
1,AAAAAAAAATATATATGTACATATGTATAATAAAAA [XGTACX_site2110],7.92 ± 0.45
2,AATGAAGACTTTTTTACACACTTCATATATTATATA [CACACA_site2034],8 ± 0.73
3,TATTTATTTATATATGCATGCTAATAATTATAACAT [TGCATGCA_site988],7.83 ± 0.54
4,CCAAACTAAATGTACACACATACATAAATATAAATA [CACACA_site1141],7.97 ± 0.18
5,ATGTAATAAATATACACACACAAATATATATATATA [CACACA_site2395],9.47 ± 0.14
6,ATATTTTCAGTTCTCCATTATGTTCCCATTATTTTT [CACACA_negctrl_site990],7.96 ± 0.79
7,CATGAATATTTTAATGTGCACATTTATCATTATATG,9.5 ± 0.21
8,ATATATATATATATTGCACACATATAAATATATATA [CACACA_site8167],10.5 ± 0.47
9,TTTTTGTTTTTTTTGTGTACTTATCAAATATATATA [XGTACX_site7273],7.96 ± 0.45
10,GAAAAATTTAATTATTGTACGTTTCATCTATATTTA [XGTACX_site414],7.72 ± 0.57
11,TACTATATATTATATAGTACATAAGATATACAACAT [XGTACX_site2929],7.81 ± 0.49
12,AAGAAAATTAACCCATGTACTTATGTAGATAGCAAG [XGTACX_site1049],7.87 ± 0.47
13,CAAAAAAAATTATACACACACACACCCATATATATA [CACACA_site1044],8.28 ± 0.67
14,TAAAACTTAATATAAACACACAAAAATTAATAAATA [CACACA_site4370],7.62 ± 0.44
15,CAATATTATAGATATACACACATAATGTGTAAAAAC [CACACA_site6631],7.87 ± 0.79
16,TCTTGATCTTATATATATCTACAATATTTTATACAT [TGCATGCA_negctrl_site569],7.89 ± 0.62
17,ATTACAAATATAATATGTACTTAAATATAATTAAAA [XGTACX_site7038],7.6 ± 0.38
18,ATTACTAAAACAAAATGTACATATGATTTAAGAAAA [XGTACX_site5992],7.69 ± 0.31
19,TTTTTTTTTTAGAGTACACACTTTTTTACATTTATG [CACACA_site5990],8 ± 0.48
20,AGCCCAAAAAAGTAGACATGCAAAAACTTTACAACT [TGCATGCA_site550],7.8 ± 0.71
21,AAAAAAAAAAAGAAGGGTACATATTATATATAATAT [XGTACX_site6204],7.58 ± 0.42
22,TATATATAAACATAATGTACATATAATAAGTAATAT [XGTACX_site497],7.88 ± 0.54
23,AATTTTCAATAGTATACACACAATTCTATAAATATA [CACACA_site6650],7.66 ± 0.61

row,Sequence,gcPBM binding intensity (ln)
1,AATGAGAATTTTATTACACACTTTAATATATTTTCA [CACACA_site784],7.7 ± 0.53
2,CACGTGAAAATACAAGCATGCAAGCTTTTTTTTTCT [TGCATGCA_site642],7.29 ± 0.86
3,AATTTTTTTATAGCACGTACAAAAATACAAAATACA [XGTACX_site1569],9.23 ± 0.071
4,TAGAGGAATATAATATGTACATAATATAATGTATAT [XGTACX_site2838],7.9 ± 0.57
5,AGTGAAATTTTAGTCACACAGTTTTATCTTTAAGAA [CACACA_site5202],7.18 ± 0.66
6,TTATGTCTAATGAAATGTACATGAATAAATTAAAGT [XGTACX_site8138],8.28 ± 0.4
7,AAAAAAATAAATAAATGTACACATATATATATATAT [XGTACX_site4350],9.17 ± 0.028
8,ATCATTTATATTTTATGTACATATATAATTATATTT [XGTACX_site2129],8.01 ± 0.59
9,AATTATATAAGCCACGCATGTGTGCATAAAAATACA [TGCATGCA_site114],11.1 ± 0.34
10,CTTAAAAAAATATATTGTACATATATATATACAACT [XGTACX_site1281],7.83 ± 0.23
11,TATATTCCCATATAACGTACATATGAGACACCAACT [XGTACX_site8099],7.97 ± 0.35
12,GTTTATATATTATAAAGTACATATGAATTTAATAAT [XGTACX_site3601],7.78 ± 0.23
13,ATTTCAAAATATAGCTGTACAAAAAATGTAGATATA [XGTACX_site5843],7.84 ± 0.43
14,AAAAAATAAATAAACATAAATAAATAAATAAATATA [XGTACX_negctrl_site340],7.42 ± 0.73
15,GATCATTCTAAATATAAACACACATAAATATATACA [CACACA_site9108],7.74 ± 0.49
16,ATAATATAATAATATTGTACATGGTCAAATATGAAA [XGTACX_site8390],7.7 ± 0.61
17,AATTTTGTCCTATGTTGTACTATTTTGCTCTATTTT [XGTACX_site7139],8.13 ± 0.91
18,TAACTTCAAAAATCTTGTACATAAATATATAAAACA [XGTACX_site8574],7.66 ± 0.45
19,TTTCTCTCTTATAAAATACACACGAACAATCATATT [CACACA_site509],7.88 ± 0.47
20,AAAAATGGTGTTAACACACACATATATATATATATA [CACACA_site571],9.52 ± 0.45

# From the supplement of paper PMC11417369
